Laboratory results from paper PMC12375107.
Results are given in words; binding and its absence hold for the method and conditions named. For some of these results: In cells and extracts the contact can be indirect. Some results given as binding are weak or reduced against the parent protein; the word gives no strength. For some of these results: Tags and fused reporters may be left off the sequences shown. One block for each binder: values may come before it.

Chains of the proteins cited; added tags and fusions are not shown.
UniProt Q86WV6: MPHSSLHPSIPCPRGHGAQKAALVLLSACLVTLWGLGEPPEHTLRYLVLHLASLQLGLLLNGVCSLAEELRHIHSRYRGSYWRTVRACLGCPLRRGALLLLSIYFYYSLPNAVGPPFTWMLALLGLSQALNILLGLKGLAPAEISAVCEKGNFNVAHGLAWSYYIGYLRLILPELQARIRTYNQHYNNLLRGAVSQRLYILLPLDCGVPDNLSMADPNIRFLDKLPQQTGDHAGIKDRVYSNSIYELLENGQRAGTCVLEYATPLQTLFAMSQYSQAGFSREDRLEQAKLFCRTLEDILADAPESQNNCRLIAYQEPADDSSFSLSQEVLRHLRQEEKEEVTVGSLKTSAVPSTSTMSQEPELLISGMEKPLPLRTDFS

Legend:
[1] = target: T1, endogenous mouse Sting (mouse (endogenous in MC38)) (UniProt Q3TBT3); assay: co-IP; mouse proteins in mouse cells (MC38 named for Supplemental Fig. 1B, C); exogenous and endogenous; details not shown
T1 sequence: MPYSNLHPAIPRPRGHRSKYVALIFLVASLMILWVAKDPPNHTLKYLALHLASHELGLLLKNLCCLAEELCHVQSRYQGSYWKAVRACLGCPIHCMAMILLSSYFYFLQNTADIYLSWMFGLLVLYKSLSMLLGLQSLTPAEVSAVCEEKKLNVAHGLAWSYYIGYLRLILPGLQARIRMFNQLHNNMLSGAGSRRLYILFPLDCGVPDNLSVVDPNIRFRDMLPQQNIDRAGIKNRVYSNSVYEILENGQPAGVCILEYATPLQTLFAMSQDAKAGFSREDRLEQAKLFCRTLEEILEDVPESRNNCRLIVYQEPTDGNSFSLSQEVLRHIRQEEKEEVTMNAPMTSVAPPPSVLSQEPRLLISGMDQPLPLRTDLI

[2] = target: T2, Flag-tagged CAD (caspase-activated DNase) (human) (UniProt O76075); assay: co-IP; exogenous (transfected) proteins in lysates of HEK293T, HCT116 or HT29 cells; IP lysis buffer 25 mM HEPES, 150 mM NaCl, 1 mM EDTA, 1% NP-40, 10% glycerol, pH 7.4; antibody against Flag, MYC or HA, Protein A/G magnetic beads; western blotting
T2 sequence: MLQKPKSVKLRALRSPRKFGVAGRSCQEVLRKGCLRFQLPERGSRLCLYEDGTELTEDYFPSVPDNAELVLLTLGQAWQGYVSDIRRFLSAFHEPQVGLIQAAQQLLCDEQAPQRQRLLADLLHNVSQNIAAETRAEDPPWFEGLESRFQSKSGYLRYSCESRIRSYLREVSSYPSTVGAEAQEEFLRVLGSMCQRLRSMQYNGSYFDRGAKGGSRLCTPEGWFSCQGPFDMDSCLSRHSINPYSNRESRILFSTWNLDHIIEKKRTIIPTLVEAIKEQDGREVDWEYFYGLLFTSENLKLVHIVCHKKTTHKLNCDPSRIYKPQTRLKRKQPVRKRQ

tagged STING (human) = tagged STING (human) (UniProt Q86WV6); assay: as above
[3] = target: tagged STING (human), Q86WV6; assay: as above; details: remark: other sources report otherwise
[4] = target: endogenous STING (human (endogenous in HCT116 and the indicated human cells)) (UniProt Q86WV6); assay: co-IP; endogenous proteins; antibody against STING or IgG, Protein A/G magnetic beads; IP lysis buffer 25 mM HEPES, 150 mM NaCl, 1 mM EDTA, 1% NP-40, 10% glycerol, pH 7.4; western blotting
GST-tagged STING (human) = GST-tagged STING (human) (UniProt Q86WV6); assay: pull-down; purified GST-tagged CAD or STING incubated with untagged STING or CAD and GST-conjugated beads at 4 °C overnight; western blotting; both purified
[5] = target: tagged STING (human), Q86WV6; assay: co-IP; HEK293T cells; the pair co-expressed with a third protein (CAD, ICAD or ICAD-NTD), in part at different amounts; western blotting; details: remark: other sources report otherwise

B2: ICAD (inhibitor of CAD) (protein, UniProt O00273 1-331)
chain: MEVTGDAGVPESGEIRTLKPCLLRRNYSREQHGVAASCLEDLRSKACDILAIDKSLTPVTLVLAEDGTIVDDDDYFLCLPSNTKFVALASNEKWAYNNSDGGTAWISQESFDVDETDSGAGLKWKNVARQLKEDLSSIILLSEEDLQMLVDAPCSDLAQELRQSCATVQRLQHTLQQVLDQREEVRQSKQLLQLYLQALEKEGSLLSKQEESKAAFGEEVDAVDTGISRETSSDVALASHILTALREKQAPELSLSSQDLELVTKEDPKALAVALNWDIKKTETVQEACERELALRLQQTQSLHSLRSISASKASPPGDLQNPKRARQDPT
- binding [2]: binds
- binding (tagged STING (human)): no binding

B3: IRF3 (interferon regulatory factor 3), Q14653 1-427 (protein)
chain: MGTPKPRILPWLVSQLDLGQLEGVAWVNKSRTRFRIPWKHGLRQDAQQEDFGIFQAWAEATGAYVPGRDKPDLPTWKRNFRSALNRKEGLRLAEDRSKDPHDPHKIYEFVNSGVGDFSQPDTSPDTNGGGSTSDTQEDILDELLGNMVLAPLPDPGPPSLAVAPEPCPQPLRSPSLDNPTPFPNLGPSENPLKRLLVPGEEWEFEVTAFYRGRQVFQQTISCPEGLRLVGSEVGDRTLPGWPVTLPDPGMSLTDRGVMSYVRHVLSCLGGGLALWRAGQWLWAQRLGHCHTYWAVSEELLPNSGHGPDGEVPKDKEGGVFDLGPFIVDLITFTEGSGRSPRYALWFCVGESWPQDQPWTKRLVMVKVVPTCLRALVEMARVGGASSLENTVDLHISNSHPLSLTSDQYKAYLQDLVEGMDFQGPGES
- binding [3]: binds

B4: IRF3 (interferon regulatory factor 3) (protein, UniProt Q14653 1-427)
chain: MGTPKPRILPWLVSQLDLGQLEGVAWVNKSRTRFRIPWKHGLRQDAQQEDFGIFQAWAEATGAYVPGRDKPDLPTWKRNFRSALNRKEGLRLAEDRSKDPHDPHKIYEFVNSGVGDFSQPDTSPDTNGGGSTSDTQEDILDELLGNMVLAPLPDPGPPSLAVAPEPCPQPLRSPSLDNPTPFPNLGPSENPLKRLLVPGEEWEFEVTAFYRGRQVFQQTISCPEGLRLVGSEVGDRTLPGWPVTLPDPGMSLTDRGVMSYVRHVLSCLGGGLALWRAGQWLWAQRLGHCHTYWAVSEELLPNSGHGPDGEVPKDKEGGVFDLGPFIVDLITFTEGSGRSPRYALWFCVGESWPQDQPWTKRLVMVKVVPTCLRALVEMARVGGASSLENTVDLHISNSHPLSLTSDQYKAYLQDLVEGMDFQGPGES
- binding [2]: no binding

B8: TBK1 (TANK-binding kinase) (enzyme, UniProt Q9UHD2 1-729)
chain: MQSTSNHLWLLSDILGQGATANVFRGRHKKTGDLFAIKVFNNISFLRPVDVQMREFEVLKKLNHKNIVKLFAIEEETTTRHKVLIMEFCPCGSLYTVLEEPSNAYGLPESEFLIVLRDVVGGMNHLRENGIVHRDIKPGNIMRVIGEDGQSVYKLTDFGAARELEDDEQFVSLYGTEEYLHPDMYERAVLRKDHQKKYGATVDLWSIGVTFYHAATGSLPFRPFEGPRRNKEVMYKIITGKPSGAISGVQKAENGPIDWSGDMPVSCSLSRGLQVLLTPVLANILEADQEKCWGFDQFFAETSDILHRMVIHVFSLQQMTAHKIYIHSYNTATIFHELVYKQTKIISSNQELIYEGRRLVLEPGRLAQHFPKTTEENPIFVVSREPLNTIGLIYEKISLPKVHPRYDLDGDASMAKAITGVVCYACRIASTLLLYQELMRKGIRWLIELIKDDYNETVHKKTEVVITLDFCIRNIEKTVKVYEKLMKINLEAAELGEISDIHTKLLRLSSSQGTIETSLQDIDSRLSPGGSLADAWAHQEGTHPKDRNVEKLQVLLNCMTEIYYQFKKDKAERRLAYNEEQIHKFDKQKLYYHATKAMTHFTDECVKKYEAFLNKSEEWIRKMLHLRKQLLSLTNQCFDIEEEVSKYQEYTNELQETLPQKMFTASSGIKHTMTPIYPSSNTLVEMTLGMKKLKEEMEGVVKELAENNHILERFGSLTMDGGLRNVDCL
- binding [2]: no binding

Other lines, results leading:

- binding [1]: binds
B1: endogenous mouse Cad (enzyme, UniProt O54788 1-344)
chain: MCAVLRQPKCVKLRALHSACKFGVAARSCQELLRKGCVRFQLPMPGSRLCLYEDGTEVTDDCFPGLPNDAELLLLTAGETWHGYVSDITRFLSVFNEPHAGVIQAARQLLSDEQAPLRQKLLADLLHHVSQNITAETREQDPSWFEGLESRFRNKSGYLRYSCESRIRGYLREVSAYTSMVDEAAQEEYLRVLGSMCQKLKSVQYNGSYFDRGAEASSRLCTPEGWFSCQGPFDLESCLSKHSINPYGNRESRILFSTWNLDHIIEKKRTVVPTLAEAIQDGREVNWEYFYSLLFTAENLKLVHIACHKKTTHKLECDRSRIYRPQTGSRRKQPARKKRPARKR

- binding [4]: binds
B5: endogenous CAD (enzyme, UniProt O76075 1-338)
chain: MLQKPKSVKLRALRSPRKFGVAGRSCQEVLRKGCLRFQLPERGSRLCLYEDGTELTEDYFPSVPDNAELVLLTLGQAWQGYVSDIRRFLSAFHEPQVGLIQAAQQLLCDEQAPQRQRLLADLLHNVSQNIAAETRAEDPPWFEGLESRFQSKSGYLRYSCESRIRSYLREVSSYPSTVGAEAQEEFLRVLGSMCQRLRSMQYNGSYFDRGAKGGSRLCTPEGWFSCQGPFDMDSCLSRHSINPYSNRESRILFSTWNLDHIIEKKRTIIPTLVEAIKEQDGREVDWEYFYGLLFTSENLKLVHIVCHKKTTHKLNCDPSRIYKPQTRLKRKQPVRKRQ

- binding (GST-tagged STING (human)): binds
B6: untagged CAD (enzyme, UniProt O76075 1-338)
chain: MLQKPKSVKLRALRSPRKFGVAGRSCQEVLRKGCLRFQLPERGSRLCLYEDGTELTEDYFPSVPDNAELVLLTLGQAWQGYVSDIRRFLSAFHEPQVGLIQAAQQLLCDEQAPQRQRLLADLLHNVSQNIAAETRAEDPPWFEGLESRFQSKSGYLRYSCESRIRSYLREVSSYPSTVGAEAQEEFLRVLGSMCQRLRSMQYNGSYFDRGAKGGSRLCTPEGWFSCQGPFDMDSCLSRHSINPYSNRESRILFSTWNLDHIIEKKRTIIPTLVEAIKEQDGREVDWEYFYGLLFTSENLKLVHIVCHKKTTHKLNCDPSRIYKPQTRLKRKQPVRKRQ

- binding [5]: binds
- binding [3]: binds
B7: TBK1 (TANK-binding kinase), Q9UHD2 1-729 (enzyme)
chain: MQSTSNHLWLLSDILGQGATANVFRGRHKKTGDLFAIKVFNNISFLRPVDVQMREFEVLKKLNHKNIVKLFAIEEETTTRHKVLIMEFCPCGSLYTVLEEPSNAYGLPESEFLIVLRDVVGGMNHLRENGIVHRDIKPGNIMRVIGEDGQSVYKLTDFGAARELEDDEQFVSLYGTEEYLHPDMYERAVLRKDHQKKYGATVDLWSIGVTFYHAATGSLPFRPFEGPRRNKEVMYKIITGKPSGAISGVQKAENGPIDWSGDMPVSCSLSRGLQVLLTPVLANILEADQEKCWGFDQFFAETSDILHRMVIHVFSLQQMTAHKIYIHSYNTATIFHELVYKQTKIISSNQELIYEGRRLVLEPGRLAQHFPKTTEENPIFVVSREPLNTIGLIYEKISLPKVHPRYDLDGDASMAKAITGVVCYACRIASTLLLYQELMRKGIRWLIELIKDDYNETVHKKTEVVITLDFCIRNIEKTVKVYEKLMKINLEAAELGEISDIHTKLLRLSSSQGTIETSLQDIDSRLSPGGSLADAWAHQEGTHPKDRNVEKLQVLLNCMTEIYYQFKKDKAERRLAYNEEQIHKFDKQKLYYHATKAMTHFTDECVKKYEAFLNKSEEWIRKMLHLRKQLLSLTNQCFDIEEEVSKYQEYTNELQETLPQKMFTASSGIKHTMTPIYPSSNTLVEMTLGMKKLKEEMEGVVKELAENNHILERFGSLTMDGGLRNVDCL
